Source: the supplement of paper PMC11417369
Some of the results follow.

test system: PfAP2-HC AP2 domain (GST-tagged); test: gcPBM binding intensity (ln(normalized median fluorescence intensity)); higher = stronger DNA binding
Method in brief: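 Each value is the highest Masliner-normalised natural-log median intensity across replicate spots of either orientation of a probe. The probes were primer-extended double-stranded 36-bp intergenic genomic sequences on an Agilent 4 × 180k array, alongside negative controls, exposed for 1 h to GST-tagged P. falciparum DNA-binding domains expressed in E. coli. Bound protein was picked up with Alexa488 anti-GST antibody and scanned at 488 nm.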

| Sequence | gcPBM binding intensity (ln) |
| --- | --- |
| AAACAAAATTTATTTCAAAGTTAATAATTTTTATGT [CACACA_negctrl_site232] | 9.35 |
| ATATTGTAGATATTGTGTACATATTTTACAACTTTT [XGTACX_site7621] | 9.81 |
| TATGTACACCCATATACACACCTCTATAATATATAT [CACACA_site4563] | 9.88 |
| TCAAAAAATATATTTGCACACTCAAAAAAAAAAAAA [CACACA_site860] | 9.53 |
| TACACACATTACAGATGTACATAAAATTAAAAAAAT [XGTACX_site1804] | 9.69 |
| TATATATATATAAATACATGCATATAATTAATCCAT [TGCATGCA_site400] | 9.64 |
| TTTTTCACATTTCAGTGTACATTTTAATCATATATA [XGTACX_site915] | 9.67 |
| CGACAAAAATTTTACAGTACAGTATAAACCTTTTTA [XGTACX_site290] | 9.43 |
| TATTTTTTTAAGTGCAGTACACTTAATTTCCCCCAA [XGTACX_site7328] | 9.39 |
| ATTTTTTTTTTTTTTTTAAGACAAACTCTTAATTTA [CACACA_negctrl_site1389] | 9.4 |
| ATTCCAAAAAAATCAAGTACTAATTTATTATATTAC [XGTACX_site3920] | 9.47 |
| AAAAAAAAAAAAAAAAAAATATATTATATATATATA [XGTACX_negctrl_site467] | 9.39 |
| TAAAAATAAAGAAAATGTACATAAATAAAAATAAAG [XGTACX_site2279] | 9.83 |
| TATATATATACATAATGTACAAGAATTTGTATTGAA [XGTACX_site627] | 9.63 |
| ACAGGAGTATAACCTCGTACAAAATATATTTACCAT [XGTACX_site5805] | 9.62 |
| CCTAGAAAAGCATATACACACGCGCAAAATAAAATT [CACACA_site4902] | 9.84 |
| TCTTTAAAAAAAAAAAAAAAAAATTCCAAATAAATA [TGCATGCA_negctrl_site538] | 8.89 |
| AAAAAGCAGGATTATACACACAAATATATATATGTT [CACACA_site1077] | 9.81 |
| TATATAAATTTAATAACACACATATAAAAATGAATT [CACACA_site2366] | 9.71 |
| ATATATATATAACATTGTACACACAAAGAAATAATA [XGTACX_site6440] | 10 |
| ATATGTTTACGTAAATGTACACGTCAGTATATTTCT [XGTACX_site8199] | 9.87 |
| AACTTGTATATATACACACACACACTATCTTTTTTT [CACACA_site8601] | 10.9 |

| Sequence | gcPBM binding intensity (ln) |
| --- | --- |
| TTTTATAATAAGTATGTAAAAATTATATATATATAT [CACACA_negctrl_site711] | 9.36 |
| ACACATTATAAAACTGTCGCTCATAAAGAAGAATGA [CACACA_negctrl_site999] | 9.89 |
| GCAACAAAAAATCAGACATGCATTTTAAAATGAATA [TGCATGCA_site846] | 9.69 |
| CATATTGAATATTTAACACACATTTCGCTTAATTCA [CACACA_site2086] | 9.77 |
| TATAAAAAAAAAATTTGTACATAATAATATATATAT [XGTACX_site2074] | 9.57 |
| TTATATATAAAATACTGTACATTTAATTGATGGTTT [XGTACX_site2073] | 9.62 |
| GAATGAATTGTTATTAGTACACATGTGAATTATAAA [XGTACX_site6790] | 9.71 |
| CTTTTATATGTCTAATGTACGGGCAATATAAATTTG [XGTACX_site8323] | 9.43 |
| ATATATATATATATATGTACATAATATATGTCCTAT [XGTACX_site5087] | 10.1 |
| GTAAGCATAAATATATGTACATACATATACAGATAT [XGTACX_site3361] | 9.86 |
| TAAGATAAAAAAAATGCATGTTCTTATAATATTGTC [TGCATGCA_site939] | 9.64 |
| ATTATATCATCTAAAACATGCACACATATGTACTCT [TGCATGCA_site949] | 10.3 |
| GTTGAGAAAATATGTGCATGTCAGGTTAAATTTTTA [TGCATGCA_site744] | 9.52 |
| GGTGATATAATATATACATGCACATATATATTATTA [TGCATGCA_site970] | 9.62 |
| TATGGAAATATATATTGTACGTATGACCTTTAAAAA [XGTACX_site3935] | 9.56 |
| TTACAAAAAAATAATTGTACATACAATTTCTGTTAT [XGTACX_site877] | 9.59 |
| TTTATATGTATGAAGTGTACACATATATTGTATTTT [XGTACX_site5731] | 9.77 |
| ATTAGTTTACACATATGTACATATATTACAACAAAA [XGTACX_site275] | 9.66 |
| TTTATAATAAAATTTTTACACACTTTAAAAAAAAAA [CACACA_site8070] | 9.37 |
| TTTTTTTCAATATTTGCACACGATTATAATATTTAA [CACACA_site2237] | 9.81 |
| AATATTCGTAATTGATGTACTTGTAATTCATACATT [XGTACX_site8314] | 9.67 |
| AATAAATATCTGTACACACACAAATAAATACATATC [CACACA_site5108] | 10.3 |

| Sequence | gcPBM binding intensity (ln) |
| --- | --- |
| TATAATAAAAATAATACACACATATATAGCAATCGT [CACACA_site3241] | 10.1 |
| CAGAATAATTTTATCGGTACACACTGTATGCATAAT [XGTACX_site736] | 9.72 |
| TTTATGTATTTTTATGCACACATGCGTGGCTTATAT [CACACA_site4374] | 9.93 |
| TACGGACATACTAACGGACACACGTAAGAAAAAAAA [CACACA_site602] | 9.69 |
| TATGACATATCCTGTAGTACAACGTATATATAAGAT [XGTACX_site1327] | 9.7 |
| AATAAAAATAATGAATGTACATATATATATACAATA [XGTACX_site3342] | 9.74 |
| ATATATAACGTGCACACACACATTTACGTATGAATA [CACACA_site6948] | 10 |
| ATATATAATTTTTGCTGTACACAAAATATTAATTTA [XGTACX_site2057] | 9.56 |
| TTTTATTAAAACCACGCATGCAGAGGAAACGGTGAG [TGCATGCA_site1029] | 9.78 |
| TTCTGTATAATATAAAAACAAAAATTAAATTAAAAC [CACACA_negctrl_site81] | 9.45 |
| CATAAAATATAAAACACACACACATATATATATATA [CACACA_site223] | 10.7 |
| AAATTTTTTATTCTAATTAATATTTACACAATATAT [TGCATGCA_negctrl_site376] | 9.68 |
| TTCCATGTAGGACATGCATGCAGTTTTTAAAATATT [TGCATGCA_site481] | 9.67 |
| TATTATATAAATATACGTACATATACTAACCTTTTA [XGTACX_site6317] | 9.57 |
| ATATATACTATAATAGTGCATTAAAAAAGTAAAAAT | 9.81 |
| TAAAGAGAAATATGTACATGCGAAAATGCCTTAAAT [TGCATGCA_site1050] | 9.67 |
| TGAACAAAAAAAAATTGTACTTTTTTTTTAATATTT [XGTACX_site7172] | 9.39 |
| TTTCTTCGAAATAGAACACTTGTGCAAAATAAGCAA [XGTACX_negctrl_site361] | 9.44 |
| AAAAAAAACAATCTCATACACACTAGGGATTAATTA [CACACA_site1776] | 9.82 |
| ATTTTTTTATAAAATTTTTATATAATTTATTATAAA [GTGCAC_negctrl_site96] | 9.3 |
| AGACAATAATATAATCGTACAATAAATAAAATAAAA [XGTACX_site5231] | 10 |
| AAATATAATATACAAAGTACTTTTTCATCTTATATA [XGTACX_site8771] | 9.62 |

| Sequence | gcPBM binding intensity (ln) |
| --- | --- |
| AAAATAATCTTTTGATTGCACTGTTACATTTTTTCT [GTGCAC_site9563] | 9.75 |
| TTAAATGTTGGTTGTAGTACTCCATATGTTGTTTTA [XGTACX_site5312] | 9.7 |
| CTTATGTGCATACCTACACACTTACATATATATATA [CACACA_site8973] | 9.85 |
| TTTGGAATATTAATTGTGCACTTAAAAAGTTAATTA | 9.47 |
| TATATATATATAAGATGTACCCTTTGAAATAATAAT [XGTACX_site7215] | 9.56 |
| TGATACTGCAAAAAATATAAAAAAATAATAAAATAA [CACACA_negctrl_site791] | 9.5 |
| AACAAAAGTAATTAAAAACAATACAAACATATGTTT [XGTACX_negctrl_site220] | 9.56 |
| TGGATAAAATAAAAATGTACTTAACATTTATATTTT [XGTACX_site712] | 9.38 |
| AAATAATATAAACATACACACACACCGATATATATA [CACACA_site8945] | 10.7 |
| TTTCTAATTTATATCACACACATATAAATATAGTAA [CACACA_site6210] | 9.64 |
| ATATATAGGTTCCCTTTTCTTTTTTTTTTTTTTTTT [CACACA_negctrl_site1159] | 9.39 |
| ATCATTCAAAAATGCTGTACTAGGGGAAAACGTGTT [XGTACX_site7168] | 9.67 |
| ATGTATGAAAAAATGTGTACATAATTTTTTTTTTTT [XGTACX_site5444] | 9.72 |
| ATATATATATATATATGTACATATTTTATAACTGTA [XGTACX_site5395] | 10.1 |
| ATTTATACATATAAACGTACATACATATATAATATT [XGTACX_site2969] | 9.78 |
| AACATAAAACGTAATATATTACAAATATAAACAATC [CACACA_negctrl_site1675] | 10 |
| TTACCATTTGAAAATTCACACACTTTATTTTGTTAT [CACACA_site3799] | 10.1 |
| TTTATATTAATTGATGTGCACTGAAATATTTGTCCA [GTGCAC_site9655] | 9.59 |
| ACCCTATAGGTAACTACACACCGCATATTGTTTACT [CACACA_site7436] | 9.88 |
| TTAACTATGAATACATGTACATGAAAATATTTCAAT [XGTACX_site1069] | 9.67 |
| GGCAAATTTATTATACCCACATACATACATACATAC [XGTACX_negctrl_site186] | 9.69 |
| AAATTAATAAAAAATGGTACACAAAATGGATGTATA [XGTACX_site1561] | 9.78 |
